Reference: the supplement of paper PMC7726561
Whole data set: some 1,100 sequences, median “thermal melting temperature (Tm) of peptide-HLA complex” near 58, cut for the lowest 2% near 42. This is one part of the list.

The sequences below were run against HLA-A*02:01 (assay: thermal melting temperature (Tm) of peptide-HLA complex; higher = more thermostable pHLA complex). Conditions: C1R-A*02:01.
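Note: cell lysates heated 10 min at 37–73 °C, remaining pHLA pulled down with pan-class I antibody, peptides quantified by DIA-MS versus 37 °C, Tm where half the complex is lost.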

In order of rising thermal melting temperature:
1. VLGRVNLV  45.9 °C
2. ILDDSPKEI  46.6 °C
3. YLPEDFIRVG  46.8 °C
4. FLLLPGPSAA  47 °C
5. VLYGPKIDRA  50 °C
6. ILLDNDHYA  50.4 °C
7. ALPDQGIAKA  50.7 °C
8. TIFAGTLITA  52.1 °C
9. VLAPHLTRA  53 °C
10. SQLDISEPYKV  54 °C
11. GLIDGRLTI  54 °C
12. KLDSPRVTV  54.1 °C
13. TLIDLPGITKV  54.3 °C
14. NLVEKTPAL  54.9 °C
15. VMFRTPLASV  55 °C
16. SLMDPNKFLLL  55.1 °C
17. NQFPGFKEV  55.2 °C
18. GLYSLSSVVTV  55.3 °C
19. KMDPIISRV  55.3 °C
20. VLQTNDLTSV  55.7 °C
21. LLFEGEKITI  55.8 °C
22. RLAEVGQYEQV  56.3 °C
23. ILQDRLNQV  56.8 °C
24. KLDPATSAVTV  57.3 °C
25. YLLDYPNNLL  57.4 °C
26. VFDDVQKTL  57.5 °C
27. GLLDLPFRVGV  57.6 °C
28. KVFDPVPVGV  57.6 °C
29. FLPPAQVTV  57.7 °C
30. VLMQDSRLYL  58 °C
31. AISEVIGKITA  58.6 °C
32. YQLEAEFVGV  58.7 °C
33. ALVDQRELYL  59.1 °C
34. KMWEEAISL  59.2 °C
35. TLLTDPPTA  59.5 °C
36. SLYEMVSRV  59.7 °C
37. RVSDINFTL  60.1 °C
38. HLLNESPML  60.2 °C
39. YLPPATQVV  60.3 °C
40. WVDETLSSV  60.7 °C
41. KLYQEVEIASV  61 °C
42. RLSPVSPAL  61.2 °C
43. RLIEESVTV  61.3 °C
44. SLHEFLVNL  61.5 °C
45. TLSERLWGL  61.8 °C
46. SLHPDLIYNV  62 °C
47. LLIKQVVEV  62 °C
48. ALAPAPPQV  62.1 °C
49. AMNDILAQV  62.2 °C
50. YLNHLEPPV  62.2 °C
51. ALSSVIKEL  62.4 °C
52. SLSEKQYFL  62.7 °C
53. AMLAVLHTV  62.9 °C
54. ALVDHLNVGV  63 °C
55. ALFQRPPLI  63.4 °C
56. YLLPAIVHI  65.3 °C
